By Ki is commonly meant a measure of affinity in units of concentration, obtained from inhibition or displacement. The low end stands for tighter binding, the high end for weaker binding.

For this experiment, the target named is T1, hCRTH2 (Homo sapiens, UniProt Q9Y5Y4).
T1 sequence (Q9Y5Y4 1-395): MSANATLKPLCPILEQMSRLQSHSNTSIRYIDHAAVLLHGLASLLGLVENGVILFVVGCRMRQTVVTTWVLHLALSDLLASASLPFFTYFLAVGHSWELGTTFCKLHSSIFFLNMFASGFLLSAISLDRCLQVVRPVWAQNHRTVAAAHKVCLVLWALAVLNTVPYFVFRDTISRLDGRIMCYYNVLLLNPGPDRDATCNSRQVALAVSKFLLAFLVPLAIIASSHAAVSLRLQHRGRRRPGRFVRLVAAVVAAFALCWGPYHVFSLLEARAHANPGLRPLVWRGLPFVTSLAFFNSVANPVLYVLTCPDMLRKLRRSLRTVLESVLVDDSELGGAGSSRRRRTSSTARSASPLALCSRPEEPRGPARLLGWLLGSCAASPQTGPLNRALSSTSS
Kind of experiment: biochemical. Particulars: Ki (nM), Table A; Radioligand Binding Assay A, [3H]PGD2, HEK-hCRTH2 membranes.
Molecule `Cc1ccc2c(c1)C(N(C(=O)CCC(=O)O)C1CC1)C1CCCC1N2C(=O)c1ccc(OC(F)(F)F)cc1` (single isomer, unassigned) [compound 51, 4-[Cyclopropyl[cis,cis-2,3,3a,4,9,9a-hexahydro-7-methyl-4-[4-(trifluoromethoxy)benzoyl]-1H-cyclopenta[b]quinolin-9-yl]amino]-4-oxobutanoic acid] registered a Ki of 5.1 to 20 nM.

Take `O=C(O)CCC(=O)N(C1CC1)C1c2cc(F)c(F)cc2N(C(=O)c2ccc(OC(F)(F)F)cc2)C2CCC21` (single isomer, unassigned) [compound 52, 4-(Cyclopropyl(cis,cis-5,6-difluoro-3-(4-(trifluoromethoxy)benzoyl)-1,2,2a,3,8,8a-hexahydrocyclobuta[b]quinolin-8-yl)amino)-4-oxobutanoic acid]: the Ki lay within 1 to 5 nM.

`C=Cc1ccc2c(c1)[C@@H](N(C(=O)CCC(=O)O)C1CC1)[C@H]1CCC[C@H]1N2C(=O)c1ccc(OC(F)(F)F)cc1` (single isomer, unassigned) [compound 53, 4-(Cyclopropyl((cis,cis,)-4-(4-(trifluoromethoxy)benzoyl)-7-vinyl-2,3,3a,4,9,9a-hexahydro-1H-cyclopenta[b]quinolin-9-yl)amino)-4-oxobutanoic acid] had a Ki of 5.1 to 20 nM.

`CCc1ccc2c(c1)[C@@H](N(C(=O)CCC(=O)O)C1CC1)[C@H]1CCC[C@H]1N2C(=O)c1ccc(OC(F)(F)F)cc1` (single isomer, unassigned) [compound 54, 4-(Cyclopropyl((cis,cis,)-7-ethyl-4-(4-(trifluoromethoxy)benzoyl)-2,3,3a,4,9,9a-hexahydro-1H-cyclopenta[b]quinolin-9-yl)amino)-4-oxobutanoic acid] registered a Ki of 20.1 to 200 nM.

`O=C(O)CCC(=O)N(C1CC1)[C@@H]1c2cc(CF)ccc2N(C(=O)c2ccc(OC(F)(F)F)cc2)[C@@H]2CCC[C@@H]21` (single isomer, unassigned) [compound 56, 4-(Cyclopropyl((cis,cis,)-7-(fluoromethyl)-4-(4-(trifluoromethoxy)benzoyl)-2,3,3a,4,9,9a-hexahydro-1H-cyclopenta[b]quinolin-9-yl)amino)-4-oxobutanoic acid] showed a Ki of 5.1 to 20 nM.

In turn, `O=C(O)CCC(=O)N(C1CC1)[C@@H]1c2cc(C(F)F)ccc2N(C(=O)c2ccc(OC(F)(F)F)cc2)[C@@H]2CCC[C@@H]21` (single isomer, unassigned) [compound 57, 4-(cyclopropyl((cis,cis,)-7-(difluoromethyl)-4-(4-(trifluoromethoxy)benzoyl)-2,3,3a,4,9,9a-hexahydro-1H-cyclopenta[b]quinolin-9-yl)amino)-4-oxobutanoic acid] had a Ki of 5.1 to 20 nM.

With `O=C(O)[C@H]1CCN1C(=O)N(C1CC1)C1c2ccccc2N(C(=O)OCc2ccccc2)C2CCCC21` (single isomer, unassigned) [compound 58], the Ki was in the range of 20.1 to 200 nM.

In turn, `O=C(O)[C@@H]1CCN1C(=O)N(C1CC1)C1c2ccccc2N(C(=O)OCc2ccccc2)C2CCCC21` (single isomer, unassigned) [compound 59] came in with a Ki of 201 to 7500 nM.

The molecule `O=C(O)CCCN(C1CC1)C1c2ccccc2N(C(=O)OCc2ccccc2)C2CCCC21` (single isomer, unassigned) [compound 60, 4-(phenylmethyl) cis, cis-[(3-carboxypropyl)cyclopropylamino]-1,2,3,3a,9,9a-hexahydro-4H-cyclopenta[b]quinoline-4-carboxylate] yielded an inhibition constant Ki of 20.1 to 200 nM.

The molecule `CCN(C(=O)CCC(=O)O)C1c2ccccc2N(C(=O)c2ccc(F)cc2)C2CCCC12` (single isomer, unassigned) [compound 61, 4-[ethyl[cis, cis-4-(4-fluorobenzoyl)-2,3,3a,9,9a-hexahydro-1H-cyclopenta[b]quinolin-9-yl]amino]-4-oxobutanoic acid] came in with a Ki of 5.1 to 20 nM.

For `CCN(C(=O)CCC(=O)O)C1c2ccccc2N(C(=O)c2ccc(F)c(F)c2)C2CCCC12` (single isomer, unassigned) [compound 62], the Ki is 5.1 to 20 nM.

Molecule `O=C(O)CCC(=O)N(C1CC1)C1c2ccccc2N(C(=O)c2ccc(SC(F)(F)F)cc2)C2CCCC21` (single isomer, unassigned) [compound 63, 4-[cyclopropyl[cis, cis-2,3,3a,4,9,9a-hexahydro-4-[4-[(trifluoromethyl)thio]benzoyl]-1H-cyclopenta[b]quinolin-9-yl]amino]-4-oxobutanoic acid] came in with an inhibitory constant (Ki) of 5.1 to 20 nM.

`CCN(C(=O)CCC(=O)O)C1c2ccccc2N(C(=O)c2cc(F)cc(F)c2)C2CCCC12` (single isomer, unassigned) [compound 64] came in with an inhibitory constant (Ki) of 5.1 to 20 nM.

Regarding `CCc1ccc(C(=O)N2c3ccccc3C(N(CC)C(=O)CCC(=O)O)C3CCCC32)cc1` (single isomer, unassigned) [compound 65, 4-[ethyl[cis, cis-4-(4-ethylbenzoyl)-2,3,3a,4,9,9a-hexahydro-1H-cyclopenta[b]quinolin-9-yl]amino]-4-oxobutanoic acid], the Ki lay in the range of 5.1 to 20 nM.

Turning to `CCN(C(=O)CCC(=O)O)C1c2ccccc2N(C(=O)c2cc(F)c(F)c(F)c2)C2CCCC12` (single isomer, unassigned) [compound 66, 4-[ethyl[cis, cis-2,3,3a,4,9,9a-hexahydro-4-(3,4,5-trifluorobenzoyl)-1H-cyclopenta[b]quinolin-9-yl]amino]-4-oxobutanoic acid], the Ki lay within 5.1 to 20 nM.

On to `CCN(C(=O)CCC(=O)O)C1c2ccccc2N(C(=O)c2ccc(F)c(C(F)(F)F)c2)C2CCCC12` (single isomer, unassigned) [compound 67, 4-[ethyl[cis, cis-4-[4-fluoro-3-(trifluoromethyl)benzoyl]-2,3,3a,4,9,9a-hexahydro-1H-cyclopenta[b]quinolin-9-yl]amino]-4-oxobutanoic acid], for which the Ki lay within 5.1 to 20 nM.

As to `CCN(C(=O)CCC(=O)O)C1c2ccccc2N(C(=O)c2ccc(C(F)(F)F)cc2)C2CCCC12` (single isomer, unassigned) [compound 68, 4-[ethyl[cis, cis-2,3,3a,4,9,9a-hexahydro-4-[4-(trifluoromethyl)benzoyl]-1H-cyclopenta[b]quinolin-9-yl]amino]-4-oxobutanoic acid], the Ki was in the range of 5.1 to 20 nM.

Molecule `CCN(C(=O)CCC(=O)O)C1c2ccccc2N(C(=O)C2CC2c2ccccc2)C2CCCC12` (single isomer, unassigned) [compound 69, 4-[ethyl[cis, cis-2,3,3a,4,9,9a-hexahydro-4-[(2-phenyl-1-cyclopropyl)carbonyl]-1H-cyclopenta[b]quinolin-9-yl]amino]-4-oxobutanoic acid] gave a Ki of 1 to 5 nM.

Regarding `O=C(O)CCCN(C1CCC1)C1c2ccccc2N(C(=O)c2ccc(OC(F)(F)F)cc2)C2CCCC21` (single isomer, unassigned) [compound 70, 4-[cyclobutyl[cis, cis-2,3,3a,4,9,9a-hexahydro-4-[4-(trifluoromethoxy)benzoyl]-1H-cyclopenta[b]quinolin-9-yl]amino]butanoic acid], the Ki was in the range of 20.1 to 200 nM.

In turn, `CCN(C(=O)CCC(=O)O)C1c2ccccc2N(C(=O)OCc2ccc(F)cc2)C2CCCC12` (single isomer, unassigned) [compound 71, 4-[(4-fluorophenyl)methyl] cis, cis-[(3-carboxy-1-oxopropyl)ethylamino]-1,2,3,3a,9,9a-hexahydro-4H-cyclopenta[b]quinoline-4-carboxylate] displayed a Ki of 1 to 5 nM.

For `CCN(C(=O)CCC(=O)O)C1c2ccccc2N(C(=O)OCc2ccc(F)c(F)c2)C2CCCC12` (single isomer, unassigned) [compound 72, 4-[(3,4-difluorophenyl)methyl] cis, cis-[(3-carboxy-1-oxopropyl)ethylamino]-1,2,3,3a,9,9a-hexahydro-4H-cyclopenta[b]quinoline-4-carboxylate], the inhibition constant (Ki) was in the range of 5.1 to 20 nM.

`CCN(C(=O)CCC(=O)O)C1c2ccccc2N(C(=O)OCc2cc(F)cc(F)c2)C2CCCC12` (single isomer, unassigned) [compound 73, 4-[(3,5-difluorophenyl)methyl] cis, cis-[(3-carboxy-1-oxopropyl)ethylamino]-1,2,3,3a,9,9a-hexahydro-4H-cyclopenta[b]quinoline-4-carboxylate] displayed a Ki of 20.1 to 200 nM.

`CCN(C(=O)CCC(=O)O)C1c2ccccc2N(C(=O)OCc2ccc(C(F)(F)F)cc2)C2CCCC12` (single isomer, unassigned) [compound 75, 4-[[4-(trifluoromethyl)phenyl]methyl] cis, cis-[(3-carboxy-1-oxopropyl)ethylamino]-1,2,3,3a,9,9a-hexahydro-4H-cyclopenta[b]quinoline-4-carboxylate] returned a Ki of 5.1 to 20 nM.

The molecule `CCN(C(=O)CCC(=O)O)C1c2ccccc2N(C(=O)OCc2cccc(F)c2)C2CCCC12` (single isomer, unassigned) [compound 76, 4-[(3-fluorophenyl)methyl] cis, cis-[(3-carboxy-1-oxopropyl)ethylamino]-1,2,3,3a,9,9a-hexahydro-4H-cyclopenta[b]quinoline-4-carboxylate] had a Ki of 5.1 to 20 nM.

In turn, `O=C(O)CCC(=O)N(C1CC1)C1c2ccccc2N(C(=O)O[C@@H](c2ccccc2)C(F)(F)F)C2CCCC21` (single isomer, unassigned) [compound 77] yielded a Ki of 20.1 to 200 nM.

For `O=C(O)CCC(=O)N(C1CC1)C1c2ccccc2N(C(=O)O[C@H](c2ccccc2)C(F)(F)F)C2CCCC21` (single isomer, unassigned) [compound 78], the Ki was in the range of 5.1 to 20 nM.

The values are drawn from patent US8592383B2, “Cycloalkyl-fused tetrahydroquinolines as CRTH2 receptor modulators” (Merck Sharp & Dohme Corp., priority 2011, dated 2013).
